Data published in ChEMBL document CHEMBL4888484, “Replenishing the malaria drug discovery pipeline: Screening and hit evaluation of the MMV Hit Generation Library 1 (HGL1) against asexual blood stage Plasmodium falciparum ,using a nano luciferase reporter read-out” (2022).
The campaign covered roughly 150,000 compounds. About 540 (0.36%) showed an effect of 50% or more. The list shows a part of the results.

tested on: Plasmodium falciparum; test: Primary screen in NF54 nanoGlo assay, in single point, at 2uM, 72h; a lower Z score goes with more inhibition; format: functional, Erythrocyte; conditions: timepoint 72 hour

Row | Structure (SMILES) | % Inhibition [%] | Z score
1 | Cc1nc(N2CCC(C(=O)N3CCCC[C@@H]3C)CC2)nc2cc(S(C)(=O)=O)ccc12 | -24 | 4.03
2 | Fc1ccccc1-c1noc(N2CCc3ccccc32)n1 | -15 | 1.3
3 | Cc1ccc(NC(=O)CN2C(=O)CCn3nc(-c4cccn4C)cc32)cc1 | -7 | 1.34
4 | O=C(NCCOc1ccccc1F)C(=O)N1CCCC1 | 7 | -0.91
5 | CC1CC(c2ccccc2)CN1C(=O)CC1(CS(C)(=O)=O)CC1 (stereo unspecified) | -1 | 0.1
6 | CC(c1nnnn1C1CCCCC1)N1CCCC(O)(C(F)(F)F)C1 (stereo unspecified) | -5 | 0.89
7 | Cc1cccc(N2C(=O)c3cccnc3[C@@H]2CC(=O)NCc2ccc(Cl)cc2)c1 | -12 | 2.33
8 | Cc1ccc(-n2cc(NC(=O)N3CC[C@@]34CCOC4)cn2)c(C)c1 | -5 | 0.67
9 | Cc1c(Cl)cccc1-c1ccc(C(=O)Nc2ccc(N3CCCCC3)cc2)o1 | 2 | -0.34
10 | C[C@]1(C#N)CCCN(Cc2cccc3nonc23)C1 | -4 | 0.64
11 | COCCNC(=O)CN1CCN(/C(=N/c2ccc(C(=O)O)cc2)NCCc2ccccc2)CC1 | -2 | 0.22
12 | CC1CCN(C(=O)C2CCC(=O)N(C3CC3)C2c2ccnn2C)C1C (stereo unspecified) | -10 | 1.14
13 | CC(C)n1nc2c(cc1=O)CN(c1ccc(C#N)cn1)CC2 | 27 | -3.1
14 | Cn1c(C(=O)NC(C)(C)C)cc2c1CCN(Cc1ccc(F)cc1)C2 | 5 | -0.62
15 | O=C(Nc1ccc(O)cc1)[C@H](Cc1ccccc1)n1cnnn1 | 3 | -0.43
16 | O=C1CCC(CCNCc2cc3c(cc2Cl)OCO3)N1CC(c1ccncc1)N1CCOCC1 (stereo unspecified) | -7 | 1.02
17 | O=C(N[C@@H](c1ccsc1)c1cccs1)c1cc(C2CC2)on1 | -15 | 2.61
18 | C[C@H](NS(C)(=O)=O)c1ccc(F)cc1F | 27 | -3.13
19 | Cc1nnc([C@H](C)Nc2ccc(-c3ccccc3)cc2)o1 | -14 | 1.84
20 | Cc1cc(C)c2c(C(=O)N3CCCC3)cc(-c3cnc(C(C)C)nc3)nc2c1 | -17 | 2.29
21 | COc1ccc(CCC(C)NC(=O)C2CC(c3cccnc3)=NO2)cc1 (stereo unspecified) | -7 | 1.49

Row | Structure (SMILES) | % Inhibition [%] | Z score
22 | Cc1ccc(N(CC2CC2)C(=O)[C@H]2OCC[C@H]2Cn2cccn2)cc1F | -2 | 0.34
23 | CCOc1ccnc(NCC2(N(C)C)CCCC2)n1 | 1 | -0.11
24 | O=C(c1cccc2ncnn12)N1CCC[C@H](C2CCOCC2)C1 | 2 | -0.17
25 | Cc1nn(C)c(C)c1C(=O)N1CCC(c2nnc(Cn3ccnc3C)n2C)CC1 | -10 | 1.7
26 | CS(=O)(=O)C1CCCC(NCc2cccn2C2CC2)C1 (stereo unspecified) | -9 | 1.42
27 | COc1cccc(C(=O)N[C@H]2CCO[C@H](c3ccccn3)C2)c1 | 3 | -0.38
28 | Cc1cccc(OC[C@@H](O)CNCCc2nnc3ccccn23)c1 | -2 | 0.38
29 | NC(=O)NC(=O)CCN1CC(c2ccccc2)OC(c2ccc(F)cc2)C1 (stereo unspecified) | -12 | 1.76
30 | CCC1=NO[C@@H](CNC(=O)c2ccc(-n3cnnc3)nc2)C1 | -7 | 0.94
31 | O=C1CCN(Cc2ccn(-c3ccc(Cl)cc3)n2)CCN1 | -11 | 1.09
32 | C[C@H]1CN(C(=O)C2(C(=O)NC3CC3)CCC2)CCN1C1CCCC1 | -7 | 0.73
33 | Cc1cccc(O)c1NC(=O)c1cccn2c(-c3ccccc3F)nnc12 | 0 | 0.02
34 | O=S(=O)(Nc1nocc1C1CC1)c1ccc(Cl)cc1 | -6 | 1
35 | CN(Cc1n[nH]c(=O)n1CC1CCCCC1)S(C)(=O)=O | -13 | 1.86
36 | CCn1nc2c(c(C(F)F)cc(=O)n2CCC(=O)N(C)Cc2ccnn2C)c1C | 30 | -3.36
37 | Cc1cc(C)n(C2CN(C(=O)CCn3ccnc3C)C2)n1 | -7 | 1.22
38 | CCC(C)Oc1cc(CNC(=O)N2CC(C)CC(C(=O)O)C2)ccn1 (stereo unspecified) | 5 | -0.55
39 | CC(C)c1nc(CNC(=O)c2ccncc2F)no1 | -14 | 1.8
40 | COC(=O)N1CCC(CNC(=O)c2ccno2)CC1 | -5 | 0.54
41 | Cc1cc(N2C(=O)C(C)(C)CS2(=O)=O)ccc1S(=O)(=O)Nc1ncccn1 | -1 | 0.08
42 | CCN(CC(=O)Nc1cc(C)ccc1C)C[C@H](O)c1cccc(O)c1 | -6 | 0.88

Row | Structure (SMILES) | % Inhibition [%] | Z score
43 | O=C(c1ccc(O)nc1)N1C2CCC1CC(Cc1ccccc1)C2 (stereo unspecified) | -21 | 2.14
44 | Cc1cc(C(C)NC[C@@H](C)O)ccc1Br (stereo partly specified) | -2 | 0.31
45 | CCn1cnnc1CN(C)C(=O)Cc1c(C)n[nH]c1C | -15 | 1.89
46 | Cc1cc2c(cc(C(=O)NCCCc3ccccc3)n2Cc2ccc(Cl)cc2)o1 | -6 | 1.16
47 | COc1ccc(Cl)cc1N1CC[C@H](NC(=O)N2CCC(CC(N)=O)CC2)C1 | 3 | -0.66
48 | O=C(Cc1cccc(C(F)(F)F)n1)Nc1cncc2c1CCCC2 | -17 | 2.26
49 | Cc1ccc2c(c1)CCCN2C(=O)CN1CCn2nc([C@H](C)O)cc2C1 | -14 | 1.61
50 | C=CCN(CC#Cc1ccccc1)Cc1ccccn1 | -13 | 1.9
51 | O=C(NCC1CC2C=CC1C2)c1ccc(Cl)cc1 (stereo unspecified) | 1 | -0.09
52 | CC1CCc2c(F)cccc2C1NC(=O)c1nc(=O)[nH][nH]1 (stereo unspecified) | 5 | -0.84
53 | Cc1cc(C)cc(CN2CCN(C(=O)Cn3nc(C)cc3C)CC2=O)c1 | -2 | 0.28
54 | O=C(NC1CCN(Cc2ccccc2)CC1)c1ccc2ncnc(N3CCCCC3)c2c1 | 14 | -1.79
55 | CCn1c(=O)c2sccc2n(CC(=O)Nc2ccc(OC)cc2)c1=O | 24 | -2.7
56 | CCCc1nc(N2CCN(Cc3ccccn3)CC2)no1 | -19 | 2.44
57 | COc1ccc2cc1OCCn1cc(nn1)CO[C@H]1CN(C(=O)c3cnc(N4CCCCC4)nc3C)C[C@@H]1NC2=O | -16 | 2.04
58 | Cc1cccc2c1C(=O)N[C@@H](c1ccc(N3CCNC(=O)C3)cc1)N2 | 2 | -0.33
59 | Cc1cc(C)cc(-n2nc(C(=O)NCc3ccc4c(c3)OCO4)c(=O)n(Cc3ccccc3)c2=O)c1 | -2 | 0.38
60 | CCS(=O)(=O)c1cc(Cl)cc(CNC(=O)NC2(C)CCC2)c1 | -2 | 0.37
61 | O=C(NC1CCCC1)c1nnc(CS(=O)(=O)c2ccccc2)o1 | 0 | 0.06
62 | COC[C@@H]1CN(C(=O)c2ccc3[nH]ccc3c2)C[C@H]1c1nc(C)no1 | -4 | 0.7
63 | COc1ccc(C)cc1[C@@H](C)NC(=O)CCc1nc(N(C)C)no1 | -7 | 0.91

Row | Structure (SMILES) | % Inhibition [%] | Z score
64 | Cc1cc(C(=O)C[C@H](C(=O)Nc2ccccc2)C(=O)c2ccccc2)c(C)n1CCc1ccc(Cl)cc1 | -19 | 3.49
65 | CCO[C@@]1(C)C[C@H]1NC(=O)c1ccc(C)c(-c2cnn(C)c2)c1 | -14 | 1.76
66 | CCc1nc(N)sc1C(=O)N[C@H]1CC[C@@H]2CCC[C@@H]21 | -1 | 0.26
67 | CC(=O)N(CCCN1CCOCC1)[C@H]1CCN(S(=O)(=O)c2cccc3cccnc23)C1 | -6 | 0.8
68 | CCn1c(CN2CCN(CC(=O)NC3CC3)CC2)nc2cc(S(=O)(=O)N3CCCCC3)ccc21 | -3 | 0.37
69 | c1ccc(-c2ncn(CCc3c[nH]cn3)c2[C@H]2CCOC2)cc1 | -11 | 1.53
70 | COc1cc(C(=O)NC2(c3c(F)cccc3F)COC2)ccn1 | -14 | 2.7
71 | Cc1nnc(-c2cnn(C)c2N)n1C[C@H]1CCCO1 | 45 | -5.82
72 | CC1CCCN(S(=O)(=O)N2CCCC2c2ccccc2)C1 (stereo unspecified) | -9 | 1.12
73 | CCOC(=O)[C@H](C)c1nc(-c2c[nH]c3ncccc23)cs1 | 5 | -0.81
74 | CC(C)Oc1cncc(C(=O)NC2(c3ccccc3)COC2)c1 | -8 | 1.01
75 | COc1nccnc1N1CCC[C@@]2(CCC(=O)N(Cc3ccccc3)C2)C1 | 7 | -1.02
76 | CN(C)CCN1C(=O)N[C@@](CCc2ccccc2)(C2CCN(C(=O)C3(C)CCCCC3)CC2)C1=O | -8 | 1.53
77 | Cc1nc2c(c(N3CCCC3)n1)CCN(C(=O)c1cc(=O)[nH]c(=O)[nH]1)C2 | 0 | -0.05
78 | CCn1cc(-c2nc(C(=O)NCc3ccccc3F)cs2)c2cccnc21 | -6 | 1.09
79 | CN(Cc1cnc2ccccc2n1)C(=O)c1ccc(N2CC(=O)NC2=O)cc1 | -8 | 1.34
80 | Cc1cccnc1CNC[C@H]1Cn2c(-c3ccc(Cl)cc3)cnc2CO1 | 6 | -0.85
81 | C=CCN1CCN(C(=O)CCn2ccn3nc(-c4ccc(C(C)C)cc4)cc3c2=O)CC1 | -5 | 0.61
82 | NC(=O)[C@@H]1CN(Cc2nnc(C3CCC3)o2)c2ccccc2N1Cc1nnc(C2CCC2)o1 | 8 | -1.11
83 | CC(C)(C)c1ccc(C(=O)C(=O)N2CCC(C(=O)NC3CC3)CC2)cc1 | -7 | 1.06
